Measurements reported in PubChem BioAssay AID463173 (ICCB-Longwood Screening Facility, Harvard Medical School, 2010).
The campaign covered roughly 52,000 compounds. About 4,300 (8.3%) were called active. No stated cut-off is given here; in the data, active means survival mostly below about 52% (no sharp cut-off); inactive means mostly above about 56%. The list shows a part of the results.

What follows are molecules tested on DeltatarO mutant (assay: growth inhibition of S. aureus wild type versus tarO mutant, primary screen, teichoic acid synthesis inhibitors, RN4220, OD600 (AID 463173)). Conditions: OD600, 18 h, active compounds read low, screened at 18.75 µg/mL (by protocol).

Question: CCOC(=O)N1CCc2c(sc3c2c(=O)n(Cc2ccccc2)c(=O)n3CC(=O)Nc2ccc(C)c(C)c2)C1 was tested. Which survival did it give?
Answer: inactive: 71%

Question: Cc1ccc(NC(=O)CCC(=O)N2CCSc3ccccc32)cc1Cl was tested. Which survival did it give?
Answer: inactive: 63%

Question: For COC(=O)C(C)n1nnc2sc(-c3ccccc3)cc2c1=O (centres undefined), which survival is on record?
Answer: inactive: 80%

Question: Which survival does the source give for C(#Cc1ccccc1)CN1CCCCC1 here?
Answer: inactive: 107%

Question: With CCOc1ccc(NC(=O)CN2C(=O)COc3ccc(S(=O)(=O)NC4CCCC4)cc32)cc1 as the molecule, how does the survival read?
Answer: inactive: 73%

Question: For O=C(Nc1ccc(F)cc1F)c1ccc2c(O)c(S(=O)(=O)c3ccc(Cl)cc3)c(=O)[nH]c2c1, which survival is on record?
Answer: inactive: 74%

Question: With O=C(/C=N/O)NCCN1CCCCC1 as the molecule, how does the survival read?
Answer: inactive: 98%

Question: For CCc1ccc(C2c3c(oc4ccc(F)cc4c3=O)C(=O)N2c2nc(C)c(C(=O)OC)s2)cc1 (centres undefined), which survival is on record?
Answer: inactive: 77%

Question: Which survival does the source give for CCN(CC)c1nc(C(F)(F)F)nc2c1nnn2Cc1ccccc1 here?
Answer: inactive: 83%

Question: How did the survival turn out when O=C(N/N=C/c1ccncc1)c1ccccc1 was run?
Answer: inactive: 79%

Question: For COc1ccc(N(CC(=O)Nc2cc(C)ccc2C)S(=O)(=O)c2ccc(OC)c(OC)c2)cc1, which survival is on record?
Answer: inactive: 157%

Question: How did the survival turn out when CC(C)=NNC(=O)CNc1ccccc1Cl was run?
Answer: inactive: 79%

Question: With COc1ccccc1OCC(=O)NCc1nc(-c2ccc(Cl)cc2)no1 as the molecule, how does the survival read?
Answer: inactive: 52%

Question: How did the survival turn out when CCOc1ccc(C(=O)Nc2ccc(S(=O)(=O)Nc3nc(C)cc(C)n3)cc2)cc1OC was run?
Answer: inactive: 84%

Question: With Cc1ccccc1Cc1c(C)nc2nc(SCC(=O)NCCc3ccc(Cl)cc3)nn2c1C as the molecule, how does the survival read?
Answer: inactive: 67%

Question: CC1=C(c2ccc(C)c(C)c2)S(=O)(=O)N(Cc2ccc(C(=O)NC(C)c3ccccc3)cc2)C1=O (centres undefined) was tested. Which survival did it give?
Answer: inactive: 83%

Question: Which survival does the source give for O=C(COCc1cc(-c2ccc3c(c2)OCO3)on1)NCc1ccccc1Cl here?
Answer: inactive: 70%

Question: How did the survival turn out when Cc1nc2scc(C)n2c(=O)c1S(=O)(=O)N1CCN(c2cccc(C(F)(F)F)c2)CC1 was run?
Answer: inactive: 64%

Question: With CN(C)c1ccc(NC(=O)Cn2cc(S(=O)(=O)Cc3cccc(Cl)c3)c3ccccc32)cc1 as the molecule, how does the survival read?
Answer: inactive: 67%

Question: For Cc1cccc(N(C)c2ccc3cc(S(=O)(=O)N4CCCC4)ccc3n2)c1, which survival is on record?
Answer: inactive: 96%

Question: For Cc1ccc2c(c1)c(N1CCCC1=O)c(C(=O)Nc1ccc(F)cc1F)n2C, which survival is on record?
Answer: inactive: 71%

Question: CCC(=O)N1CCc2cc(S(=O)(=O)NC(Cc3ccccc3)C(=O)Nc3cccc(OC)c3)ccc21 (centres undefined) was tested. Which survival did it give?
Answer: inactive: 84%

Question: How did the survival turn out when Cc1ccc(C)c(NC(=O)CSC2=Nc3ccccc3N=C(c3ccc(F)cc3)C2)c1 was run?
Answer: inactive: 88%

Question: CCOC(=O)c1cc(S(=O)(=O)N2CCN(c3ccc(C)cc3C)CC2)[nH]n1 was tested. Which survival did it give?
Answer: inactive: 82%

Question: Cc1ccc(-c2nnc3c4ccccc4c(C)nn23)cc1NC(=O)c1ccccc1Cl was tested. Which survival did it give?
Answer: inactive: 93%

Question: For Cc1ccc(S(=O)(=O)c2nnn3c2nc(N2CCCC2)c2sccc23)cc1, which survival is on record?
Answer: inactive: 113%

Question: COc1cccc(N2CCN(c3ncnc4onc(-c5ccc(F)cc5)c34)CC2)c1 was tested. Which survival did it give?
Answer: inactive: 83%

Question: O=C(C1CCCN(S(=O)(=O)c2cccc3nsnc23)C1)N1CCN(c2ccccc2Cl)CC1 (centres undefined) was tested. Which survival did it give?
Answer: inactive: 107%

Question: Which survival does the source give for O=C(CCCCCn1c(=O)[nH]c2ccccc2c1=O)NCc1ccccc1 here?
Answer: inactive: 75%

Question: CC1CCN(C(=O)c2ccc(N3C(=O)c4ccccc4C3=O)cc2)CC1 was tested. Which survival did it give?
Answer: inactive: 77%

Question: O=C(COC(=O)C1CC(=O)N(Cc2ccco2)C1)c1ccc(OC(=O)c2ccco2)cc1 (centres undefined) was tested. Which survival did it give?
Answer: inactive: 97%

Question: How did the survival turn out when CS(=O)(=O)N1CCc2cc(C(=O)N3CCN(c4ccccc4)CC3)ccc21 was run?
Answer: inactive: 47%

Question: With CC1CCC(N2CC(=O)N(C3CCCCC3)C(c3ccc(F)cc3)C2=O)CC1 (centres undefined) as the molecule, how does the survival read?
Answer: inactive: 82%

Question: For Cc1ccc2c(c1)N(C(=O)Nc1cccc(C)c1C)CCO2, which survival is on record?
Answer: inactive: 80%

Question: For O=S1(=O)c2ccccc2-c2cc(Br)ccc21, which survival is on record?
Answer: inactive: 79%

Question: For CC1Cc2cc(S(=O)(=O)NCCc3ccccc3)ccc2N1C(=O)C1CCC1 (centres undefined), which survival is on record?
Answer: inactive: 85%

Question: With CCCc1nnc(NC(=O)c2cc(=O)c3cc(Cl)ccc3o2)s1 as the molecule, how does the survival read?
Answer: active: 43%

Question: For Clc1ccccc1CN1CCN(Cc2ccco2)CC1, which survival is on record?
Answer: inactive: 86%

Question: CC(=O)c1cc(-c2ccccc2)n(CCC(=O)Nc2ccc(C)cc2C)c1C was tested. Which survival did it give?
Answer: inactive: 82%

Question: How did the survival turn out when COc1ccc(N2CC(NC(=O)c3cc4ccccc4o3)CC2=O)cc1 (centres undefined) was run?
Answer: inactive: 102%

Question: C=CCn1c(CNC(=O)c2ccccc2)n[nH]c1=S was tested. Which survival did it give?
Answer: inactive: 78%

Question: Which survival does the source give for COc1cccc(-c2nc(SCC(=O)NC3CCCC3)c(-c3ccccc3)[nH]2)c1 here?
Answer: inactive: 55%

Question: With COc1ccc(NC(=O)Cn2cnc3ccc(S(=O)(=O)N4CCC(C)CC4)cc3c2=O)cc1OC as the molecule, how does the survival read?
Answer: inactive: 59%

Question: How did the survival turn out when CCOc1ccc(NC(=O)/C=C\C(=O)N(c2ccc(C(C)C)cc2)C(C(=O)NCc2ccco2)c2ccc(F)cc2)cc1 (centres undefined) was run?
Answer: inactive: 83%

Question: For CCOc1ccc(-c2nc(SCC(=O)NC3CCCC3)c(-c3ccccc3)[nH]2)cc1OC, which survival is on record?
Answer: inactive: 55%

Question: For O=C(NC1CCN(C(=S)NCc2ccco2)CC1)NC12CC3CC(CC(C3)C1)C2, which survival is on record?
Answer: inactive: 93%

Question: For COc1ccc(CNCCC(c2ccccc2)c2ccc3c(c2)OCO3)cc1 (centres undefined), which survival is on record?
Answer: active: -14%

Question: How did the survival turn out when CCNC(=S)N1C2CCCC1CC(NC(=O)C1CC1)C2 (centres undefined) was run?
Answer: inactive: 61%

Question: CCCC1=Nc2cc(C(=O)NCCc3ccccc3)ccc2Sc2ccc(C)cc21 was tested. Which survival did it give?
Answer: inactive: 87%

Question: Cc1cc(Br)ccc1NC(=O)c1ccc(NS(=O)(=O)c2c(C)noc2C)cc1 was tested. Which survival did it give?
Answer: inactive: 59%

Question: Which survival does the source give for Cc1cc(C)cc(Oc2c(F)c(F)c(F)c(F)c2F)c1 here?
Answer: inactive: 73%

Question: How did the survival turn out when Nc1c(-c2nc(-c3ccc4c(c3)OCO4)cs2)c2ccccn2c1C(=O)c1ccccc1 was run?
Answer: inactive: 69%

Question: For COc1cc(C(=O)N2CCc3c([nH]c4ccccc34)C2c2ccc(C)cc2)cc(OC)c1OC (centres undefined), which survival is on record?
Answer: inactive: 99%

Question: With O=C(CSc1nc(-c2cccs2)nc2cc(=O)[nH]n12)Nc1ccccc1F as the molecule, how does the survival read?
Answer: active: 47%

Question: How did the survival turn out when CCCOc1ccc(C(=O)Nc2ccc(Cl)c(-c3nc4ncccc4o3)c2)cc1 was run?
Answer: inactive: 56%

Question: Which survival does the source give for CCOc1ccc(CCNC(=O)CSc2cc(=O)n(C)c3cc(Cl)ccc23)cc1OCC here?
Answer: inactive: 91%

Question: With CC(C)=CC(=O)Nc1nnc(Cc2ccccc2)s1 as the molecule, how does the survival read?
Answer: inactive: 55%

Question: How did the survival turn out when Cc1c(-c2nsc(NC(=O)c3cccc(Cl)c3)n2)nnn1-c1ccccc1C(F)(F)F was run?
Answer: active: -4%

Question: Which survival does the source give for Nc1nnc2c(Nc3ccccc3)nc3nonc3n12 here?
Answer: inactive: 86%

Question: CSc1ccc(CCNC(=O)CN2C(=O)c3cccnc3Oc3ccc(Cl)cc32)cc1 was tested. Which survival did it give?
Answer: inactive: 70%

Question: CCOc1ccc(CCNC(=O)CCc2c(C)nc3cc(-c4ccccc4OC)nn3c2C)cc1 was tested. Which survival did it give?
Answer: active: 50%

Question: With CCN(CC)c1ccc(NC(=O)C2CCN(S(=O)(=O)c3c(C)noc3/C=C/c3ccccc3F)CC2)c(C)c1 as the molecule, how does the survival read?
Answer: inactive: 90%

Question: How did the survival turn out when CC(C)(C)C1CCc2c(sc3nc(-c4cc5cc(Cl)ccc5oc4=O)[nH]c(=O)c23)C1 (centres undefined) was run?
Answer: inactive: 83%

Question: Cc1cc(=O)[nH]c2c(C)c(Cl)ccc12 was tested. Which survival did it give?
Answer: inactive: 93%

Question: How did the survival turn out when Cc1ccc(NC(=O)Cn2nc(C(F)(F)F)c3c2CCCC3)cc1 was run?
Answer: inactive: 120%

Question: With Cc1ccc(S(=O)(=O)NCCc2nnc3ccc(SCC(=O)Nc4c(C)cc(C)cc4C)nn23)cc1 as the molecule, how does the survival read?
Answer: inactive: 78%

Question: CCn1c(CNC(=O)c2ccc(OC)cc2)nnc1SCC(=O)Nc1cccc(C)c1 was tested. Which survival did it give?
Answer: inactive: 125%

Question: For Cc1ccc(S(=O)(=O)N2CCCc3cc(NC(=O)c4ccc(Cl)cc4)ccc32)cc1, which survival is on record?
Answer: inactive: 80%

Question: How did the survival turn out when CCOc1ccc(CCNC(=O)c2c3c(nc4ccccc24)C(=O)N(C2CCCCC2)C3)cc1 was run?
Answer: inactive: 72%

Question: COc1ccccc1C(=O)NC(=O)Nc1ccc(-c2cc(C(F)(F)F)nn2-c2ccccc2)cc1 was tested. Which survival did it give?
Answer: active: 30%

Question: How did the survival turn out when CCc1ccc(C(=O)c2cn(CC(=O)Nc3ccc4c(c3)OCO4)c3ccc(Cl)cc3c2=O)cc1 was run?
Answer: inactive: 72%

Question: With CCc1ccc(N(CC)C(=O)c2cn(C)c(=O)c3cc(OC)c(OC)cc23)cc1 as the molecule, how does the survival read?
Answer: inactive: 165%

Question: With CCOc1ccc2c(c1)NC(c1ccc(OCC)c(OCC)c1)=NC(c1ccc(F)cc1)=N2 as the molecule, how does the survival read?
Answer: inactive: 75%

Question: Which survival does the source give for CCCCn1c(=O)c2oc3ccccc3c2n(Cc2ccc(C)cc2)c1=O here?
Answer: inactive: 62%

Question: CCCN(CCC)CN1C(=O)S/C(=C/c2ccc(N(CC)CC)cc2)C1=O was tested. Which survival did it give?
Answer: inactive: 68%

Question: For Cc1cc(SCC(=O)Nc2ccc(F)cc2F)nc(=O)[nH]1, which survival is on record?
Answer: inactive: 115%

Question: How did the survival turn out when COc1ccc2ncc3c(-c4ccc(C)c(C)c4)nn(CC(=O)Nc4ccccc4)c3c2c1 was run?
Answer: inactive: 102%

Question: With COC(=O)c1c(NC(=O)c2cc(=O)c3cc(C)cc(C)c3o2)sc2c1CCC2 as the molecule, how does the survival read?
Answer: inactive: 80%

Question: Which survival does the source give for CCOC(=O)c1ccc(NC(=O)c2nc(SCc3ccc(F)cc3)ncc2Cl)cc1 here?
Answer: inactive: 103%

Question: How did the survival turn out when O=c1c(Cl)c(N2CCN(CCO)CC2)cnn1-c1ccccc1 was run?
Answer: inactive: 71%

Question: Which survival does the source give for COc1ccccc1NC(=O)c1cc2cc3ccc(OC)c(Cl)c3nc2s1 here?
Answer: inactive: 92%

Question: O=C(NCCc1ccccc1Cl)c1cc2ccccn2n1 was tested. Which survival did it give?
Answer: inactive: 125%

Question: With Cc1ccc(CC(=O)NCc2nc(-c3ccccc3)no2)cc1 as the molecule, how does the survival read?
Answer: inactive: 77%

Question: CCCN(CCC)C(=O)C1CCN(c2cc(C)nc3c(-c4ccc(Cl)cc4)c(C)nn23)CC1 was tested. Which survival did it give?
Answer: inactive: 97%

Question: With Cn1c(NCCCO)nc2c1c(=O)n(Cc1cccc(F)c1)c(=O)n2C as the molecule, how does the survival read?
Answer: inactive: 85%

Question: With COc1ccc(C(=O)Nc2ccc(-c3nc4ccccc4s3)c(Cl)c2)cc1Cl as the molecule, how does the survival read?
Answer: inactive: 63%

Question: COc1cc(C(=O)Nc2cc(C)c(O)c(-c3nc4ccccc4s3)c2)cc(OC)c1OC was tested. Which survival did it give?
Answer: inactive: 65%

Question: With O=C(Cn1cc(S(=O)(=O)Cc2ccccc2F)c2ccccc21)Nc1ccc(F)c(Cl)c1 as the molecule, how does the survival read?
Answer: inactive: 78%

Question: How did the survival turn out when COc1ccc(CNc2ncnc3c2c(-c2ccccc2)cn3-c2ccc(C)c(Cl)c2)cc1 was run?
Answer: inactive: 83%
